Measurements taken from the supplement of paper PMC8728848.
The other results are listed elsewhere or left out.

Assays:
Assay in all cases: glycan array binding signal (z-score within array); higher = stronger binding
Conditions in all cases: glycan notation: IUPAC condensed, linker removed
[1] = biological target: Neu5Ac(a2-3)Gal(b1-3)GlcNAc6S
Procedure, shortened: (§1)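 The binding signal is a Z-score computed within each array and averaged over linkers. Arrays of the same protein sequence at different concentrations or buffers were also averaged together. Data originate from 3228 arrays in the Consortium for Functional Glycomics database, kept only where the protein sequence was available.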

[2] = biological target: Neu5Ac(a2-3)Gal(b1-3)[Fuc(a1-4)]GlcNAc
Procedure, shortened: as §1

[3] = biological target: Neu5Ac(a2-3)Gal(b1-3)[Fuc(a1-4)]GlcNAc(b1-3)Gal(b1-3)[Fuc(a1-4)]GlcNAc
Procedure, shortened: as §1

[4] = biological target: Neu5Ac(a2-3)Gal(b1-3)[Fuc(a1-4)]GlcNAc(b1-3)Gal(b1-4)[Fuc(a1-3)]GlcNAc
Procedure, shortened: as §1

[5] = biological target: Neu5Ac(a2-3)Gal(b1-3)[Neu5Ac(a2-3)Gal(b1-4)]GlcNAc
Procedure, shortened: as §1

[6] = biological target: Neu5Ac(a2-3)Gal(b1-3)[Neu5Ac(a2-6)]GalNAc
Procedure, shortened: as §1

[7] = biological target: Neu5Ac(a2-3)Gal(b1-3)[Neu5Ac(a2-6)]GlcNAc(b1-3)[Fuc(a1-3)[Gal(b1-4)]GlcNAc(b1-6)]Gal(b1-4)Glc
Procedure, shortened: as §1

Neu5Ac(a2-3)Gal(b1-4)Glc = biological target: Neu5Ac(a2-3)Gal(b1-4)Glc
Procedure, shortened: as §1

[8] = biological target: Neu5Ac(a2-3)Gal(b1-4)GlcNAc
Procedure, shortened: as §1

[9] = biological target: Neu5Ac(a2-3)Gal(b1-4)GlcNAc(b1-2)Man
Procedure, shortened: as §1

[10] = biological target: Neu5Ac(a2-3)Gal(b1-4)GlcNAc(b1-2)Man(a1-3)[GlcNAc(b1-2)Man(b1-4)GlcNAc(b1-2)Man(a1-6)]Man(b1-4)GlcNAc(b1-4)GlcNAc
Procedure, shortened: as §1

[11] = biological target: Neu5Ac(a2-3)Gal(b1-4)GlcNAc(b1-2)Man(a1-3)[Neu5Ac(a2-3)Gal(b1-4)GlcNAc(b1-2)Man(a1-6)]Man(b1-4)GlcNAc(b1-4)[Fuc(a1-6)]GlcNAc
Procedure, shortened: as §1

[12] = biological target: Neu5Ac(a2-3)Gal(b1-4)GlcNAc(b1-2)Man(a1-3)[Neu5Ac(a2-6)Gal(b1-4)GlcNAc(b1-2)Man(a1-6)]Man(b1-4)GlcNAc(b1-4)GlcNAc
Procedure, shortened: as §1

[13] = biological target: Neu5Ac(a2-3)Gal(b1-4)GlcNAc(b1-2)[Neu5Ac(a2-3)Gal(b1-4)GlcNAc(b1-6)]Man(a1-6)[Neu5Ac(a2-3)Gal(b1-4)GlcNAc(b1-2)Man(a1-3)]Man(b1-4)GlcNAc(b1-4)GlcNAc
Procedure, shortened: as §1

[14] = biological target: Neu5Ac(a2-3)Gal(b1-4)GlcNAc(b1-3)Gal
Procedure, shortened: as §1

[15] = biological target: Neu5Ac(a2-3)Gal(b1-4)GlcNAc(b1-3)Gal(b1-3)GlcNAc
Procedure, shortened: as §1

[16] = biological target: Neu5Ac(a2-3)Gal(b1-4)GlcNAc(b1-3)Gal(b1-4)GlcNAc
Procedure, shortened: as §1

[17] = biological target: Neu5Ac(a2-3)Gal(b1-4)GlcNAc(b1-3)Gal(b1-4)GlcNAc(b1-3)Gal(b1-4)GlcNAc
Procedure, shortened: as §1

[18] = biological target: Neu5Ac(a2-3)Gal(b1-4)GlcNAc(b1-3)Gal(b1-4)[Fuc(a1-3)]GlcNAc
Procedure, shortened: as §1

[19] = biological target: Neu5Ac(a2-3)Gal(b1-4)GlcNAc(b1-3)GalNAc
Procedure, shortened: as §1

[20] = biological target: Neu5Ac(a2-3)Gal(b1-4)GlcNAc(b1-3)[Neu5Ac(a2-3)Gal(b1-4)GlcNAc(b1-6)]GalNAc
Procedure, shortened: as §1

[21] = biological target: Neu5Ac(a2-3)Gal(b1-4)GlcNAc(b1-6)GalNAc
Procedure, shortened: as §1

[22] = biological target: Neu5Ac(a2-3)Gal(b1-4)GlcNAc(b1-6)[Gal(b1-3)]GalNAc
Procedure, shortened: as §1

[23] = biological target: Neu5Ac(a2-3)Gal(b1-4)GlcNAc(b1-6)[Neu5Ac(a2-3)Gal(b1-3)]GalNAc
Procedure, shortened: as §1

[24] = biological target: Neu5Ac(a2-3)Gal(b1-4)GlcNAc6S
Procedure, shortened: as §1

[25] = biological target: Neu5Ac(a2-3)Gal(b1-4)[Fuc(a1-3)]GlcNAc
Procedure, shortened: as §1

[26] = biological target: Neu5Ac(a2-3)Gal(b1-4)[Fuc(a1-3)]GlcNAc(b1-3)Gal
Procedure, shortened: as §1

[27] = biological target: Neu5Ac(a2-3)Gal(b1-4)[Fuc(a1-3)]GlcNAc(b1-3)Gal(b1-4)GlcNAc
Procedure, shortened: as §1

[28] = biological target: Neu5Ac(a2-3)Gal(b1-4)[Fuc(a1-3)]GlcNAc(b1-3)Gal(b1-4)[Fuc(a1-3)]GlcNAc(b1-3)Gal(b1-4)[Fuc(a1-3)]GlcNAc
Procedure, shortened: as §1

[29] = biological target: Neu5Ac(a2-3)Gal(b1-4)[Fuc(a1-3)]GlcNAc(b1-3)GalNAc
Procedure, shortened: as §1

B1: StcE (Escherichia coli), O82882.2 (protein)
chain: ADNNSAIYFNTSQPINDLQGSLAAEVKFAQSQILPAHPKEGDSQPHLTSLRKSLLLVRPVKADDKTPVQVEARDDNNKILGTLTLYPPSSLPDTIYHLDGVPEGGIDFTPHNGTKKIINTVAEVNKLSDASGSSIHSHLTNNALVEIHTANGRWVRDIYLPQGPDLEGKMVRFVSSAGYSSTVFYGDRKVTLSVGNTLLFKYVNGQWFRSGELENNRITYAQHIWSAELPAHWIVPGLNLVIKQGNLSGRLNDIKIGAPGELLLHTIDIGMLTTPRDRFDFAKDKEAHREYFQTIPVSRMIVNNYAPLHLKEVMLPTGELLTDMDPGNGGWHSGTMRQRIGKELVSHGIDNANYGLNSTAGLGENSHPYVVAQLAAHNSRGNYANGIQVHGGSGGGGIVTLDSTLGNEFSHEVGHNYGLGHYVDGFKGSVHRSAENNNSTWGWDGDKKRFIPNFYPSQTNEKSCLNNQCQEPFDGHKFGFDAMAGGSPFSAANRFTMYTPNSSAIIQRFFENKAVFDSRSSTGFSKWNADTQEMEPYEHTIDRAEQITASVNELSESKMAELMAEYAVVKVHMWNGNWTRNIYIPTASADNRGSILTINHEAGYNSYLFINGDEKVVSQGYKKSFVSDGQFWKERDVVDTREARKPEQFGVPVTTLVGYYDPEGTLSSYIYPAMYGAYGFTYSDDSQNLSDNDCQLQVDTKEGQLRFRLANHRANNTVMNKFHINVPTESQPTQATLVCNNKILDTKSLTPAPEGLTYTVNGQALPAKENEGCIVSVNSGKRYCLPVGQRSGYSLPDWIVGQEVYVDSGAKAKVLLSDWDNLSYNRIGEFVGNVNPADMKKVKAWNGQYLDFSKPRSMRVVYK
glycan array binding signal (z-score) [1]: -0.167 | glycan array binding signal (z-score) [2]: -0.328 | glycan array binding signal (z-score) [3]: 4.08 | glycan array binding signal (z-score) [4]: 1.98 | glycan array binding signal (z-score) [5]: 0.35 | glycan array binding signal (z-score) [6]: 8.93 | glycan array binding signal (z-score) [7]: -0.149 | glycan array binding signal (z-score) (Neu5Ac(a2-3)Gal(b1-4)Glc): 0.019 | glycan array binding signal (z-score) [8]: 0.008 | glycan array binding signal (z-score) [9]: 0.576 | glycan array binding signal (z-score) [10]: -0.15 | glycan array binding signal (z-score) [11]: -0.122 | glycan array binding signal (z-score) [12]: -0.151 | glycan array binding signal (z-score) [13]: -0.117 | glycan array binding signal (z-score) [14]: -0.142 | glycan array binding signal (z-score) [15]: -0.139 | glycan array binding signal (z-score) [16]: -0.133 | glycan array binding signal (z-score) [17]: -0.539 | glycan array binding signal (z-score) [18]: -0.162 | glycan array binding signal (z-score) [19]: -0.123 | glycan array binding signal (z-score) [20]: -0.176 | glycan array binding signal (z-score) [21]: -0.157 | glycan array binding signal (z-score) [22]: -0.076 | glycan array binding signal (z-score) [23]: 0.105 | glycan array binding signal (z-score) [24]: 0.33 | glycan array binding signal (z-score) [25]: -0.176 | glycan array binding signal (z-score) [26]: 0.03 | glycan array binding signal (z-score) [27]: -0.478 | glycan array binding signal (z-score) [28]: 0.21 | glycan array binding signal (z-score) [29]: 0.08
